Source: paper PMC4336329 (PLoS ONE, 2015)
About 14,000 (4.5%) of roughly 310,000 compounds showed an effect of 50% or more. The effect is printed as a negative number. Some of the results follow.

biological target: human ether-à-go-go-related gene (hERG) potassium channel (human, UniProt Q12809); experiment: primary screen, population patch clamp on CHO cells stably expressing hERG
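Note: peak tail current of the secondary pulse compared with the same well before compound.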

Sequence of human ether-à-go-go-related gene (hERG) potassium channel (Q12809 whole entry, looked up): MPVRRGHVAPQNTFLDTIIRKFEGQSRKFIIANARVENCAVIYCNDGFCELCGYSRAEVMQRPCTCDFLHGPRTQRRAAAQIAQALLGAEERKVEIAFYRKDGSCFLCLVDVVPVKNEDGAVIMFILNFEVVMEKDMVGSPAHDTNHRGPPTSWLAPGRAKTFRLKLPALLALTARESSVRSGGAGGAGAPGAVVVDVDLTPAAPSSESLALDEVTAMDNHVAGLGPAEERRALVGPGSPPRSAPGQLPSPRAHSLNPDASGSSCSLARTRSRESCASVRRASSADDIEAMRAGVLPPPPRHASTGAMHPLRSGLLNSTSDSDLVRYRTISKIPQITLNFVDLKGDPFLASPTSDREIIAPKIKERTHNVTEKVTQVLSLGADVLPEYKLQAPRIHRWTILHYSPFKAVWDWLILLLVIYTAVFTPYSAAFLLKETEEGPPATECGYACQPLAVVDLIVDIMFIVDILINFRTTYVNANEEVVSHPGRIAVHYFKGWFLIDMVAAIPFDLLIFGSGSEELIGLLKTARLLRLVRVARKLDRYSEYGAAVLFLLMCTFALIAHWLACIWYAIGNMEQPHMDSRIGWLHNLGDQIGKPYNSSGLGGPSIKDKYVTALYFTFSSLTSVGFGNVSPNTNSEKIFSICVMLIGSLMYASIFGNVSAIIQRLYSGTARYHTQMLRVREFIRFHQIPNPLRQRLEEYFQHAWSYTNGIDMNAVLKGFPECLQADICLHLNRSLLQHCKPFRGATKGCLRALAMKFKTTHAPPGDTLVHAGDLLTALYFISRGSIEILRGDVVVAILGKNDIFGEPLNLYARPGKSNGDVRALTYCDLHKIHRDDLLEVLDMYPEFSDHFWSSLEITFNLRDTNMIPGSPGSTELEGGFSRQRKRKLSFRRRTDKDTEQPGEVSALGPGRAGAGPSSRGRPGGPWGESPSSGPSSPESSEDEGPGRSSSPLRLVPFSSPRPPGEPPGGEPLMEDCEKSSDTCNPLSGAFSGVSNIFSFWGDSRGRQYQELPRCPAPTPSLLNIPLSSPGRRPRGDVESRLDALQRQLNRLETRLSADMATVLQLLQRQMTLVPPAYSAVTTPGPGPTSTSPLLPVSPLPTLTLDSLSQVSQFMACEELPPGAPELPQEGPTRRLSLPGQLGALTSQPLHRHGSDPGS

| SMILES | hERG current change (%, negative = inhibition) at 10uM |
| --- | --- |
| CC1=C([N+](=O)[O-])C(c2ccc(O)c(O)c2)NC(=O)N1 (stereo not drawn) | 11.7% |
| Cc1cc(N/N=C/c2c(O)ccc3ccccc23)nc(-c2ccccc2O)n1 | -3.98% |
| O=c1c(/C=N/O)coc2ccc(Cl)cc12 | 18.4% |
| C=CCn1c(=O)[nH]c2cc(C(=O)N3CCN(c4cccc(Cl)c4)CC3)ccc2c1=O | -15.9% |
| COc1ccc(N(C)C(=O)CCC(=O)Nc2ccc3nc(N4CCOCC4)cc(C)c3c2)c(OC)c1 | -22.7% |
| Cn1c(=O)c2c(nc(NCCNC(=O)c3ccco3)n2Cc2ccc(F)cc2)n(C)c1=O | -5.2% |
| CCOC(=O)c1c(CN2CCCCC2)n(C)c2cc(Br)c(OC)cc12 | -31.7% |
| COc1ccc(/C=N/n2c(SC)nnc(C(C)(C)C)c2=O)cc1 | 16.2% |
| Cc1ccc(-c2nnc(SCC(=O)n3c4c(c5ccccc53)CCCC4)o2)cc1 | 6.39% |
| O=C(NNS(=O)(=O)c1ccccc1F)c1sccc1-n1cccc1 | 6.12% |
| C/C(=N\Nc1ccccc1)c1c(O)n(C)c(=O)n(C)c1=O | 6.62% |
| Br.O=C(CN1C2=NCCN2c2ccccc21)c1ccc(Br)cc1 | -67.6% |
| Cc1ccc(Cl)cc1-n1c(SCC(=O)NCCC2=CCCCC2)nc2n[nH]c(C)c2c1=N | -11.7% |
| CC1(C)CC(=O)C=C(Nc2ccccc2NC(=O)c2cnccn2)C1 | -64.7% |
| Cc1ccc(NC(=O)C2OCCc3ccccc32)cc1 (stereo not drawn) | 1.37% |
| CCCn1c(=N)n(CC(O)COc2cccc(C)c2)c2ccccc21.Cl (stereo not drawn) | -71.3% |
| CCn1nc(C)c(CN2CCC(C(=O)Nc3cccc(-c4cccc(F)c4)c3)CC2)c1C | -67% |
| CN(CC(=O)Nc1cccc(F)c1)C(=O)c1ccc(COc2ccccc2)cc1 | -2.76% |
| CCOc1cc(/C=C2/N=C(C)C(C(=O)OC)=C2O)ccc1O | -2.64% |
| COc1ccc(CC(=O)O/N=C(\N)c2cccc([N+](=O)[O-])c2)cc1 | -17.4% |
| Nc1nonc1-c1nc2ccccc2n1CC(=O)N1CCCCC1 | 21% |
| CCC(=O)Oc1ccc(C(=O)Nc2cccc(C(=O)NC(C)(C)C)c2)cc1 | -6.74% |
| C/C(N)=C(/C#N)C(=O)CSc1n[nH]c(-c2ccccc2Br)n1 | -18% |

| SMILES | hERG current change (%, negative = inhibition) at 10uM |
| --- | --- |
| COc1cc(NC(=O)C2=C(N3CCOCC3)/C(=C\c3ccc(N(C)C)cc3)CCC2)cc(OC)c1OC | 15.4% |
| CC1Oc2ccccc2N(CC(=O)N(Cc2ccccc2)Cc2ccccn2)C1=O (stereo not drawn) | 0.288% |
| O=C(CNc1n[nH]c(=O)[nH]c1=O)N/N=C/c1ccccc1 | 2.89% |
| Cc1ccc2nc3c(c(C(=O)O)c2c1)CCC3 | 2.29% |
| Cc1nc(NS(=O)(=O)c2cccc([N+](=O)[O-])c2)sc1C(C)(C)C | -5.09% |
| CCCCSc1nnc([C@H](CC(C)C)NC(=O)OC(C)(C)C)o1 | -18.6% |
| c1ccc(CN2CCC(Nc3nc(-c4ccccc4)nc4ccccc34)CC2)cc1 | -20.5% |
| O=C(Nc1cccs1)Nc1ccc(F)cc1F | 0.132% |
| O=C(CSc1nnc(-c2ccco2)o1)c1ccccc1 | 5.97% |
| N#C/C(=C/c1cc[nH]c1)C(N)=S | 14.2% |
| COc1ccc(C)cc1S(=O)(=O)N1CCN(C(=O)c2ncoc2-c2ccccc2C)CC1 | 5.28% |
| Cc1cc(C)cc(NC(=O)COC(=O)c2cccc(S(=O)(=O)N3CCCCC3)c2)c1 | 4.51% |
| CC1(C)Cc2ccccc2/C(=C/C(=O)N2CCCCCC2)N1.Cl | 8.89% |
| CC(NC(=O)COC(=O)Cc1ccsc1)C1CC2CCC1C2 (stereo not drawn) | -12.1% |
| Fc1ccc(-c2nnc3n2CCCCC3)cc1 | 4.54% |
| CC(Cc1cccnc1)NC(=O)c1cc(COc2ccc(F)cc2Cl)on1 (stereo not drawn) | -35.4% |
| CCC1CCCCN1C(=O)COc1cc(=O)n(C)c2ccccc12 (stereo not drawn) | -10.1% |
| COc1ccccc1C1C(C#N)=C(N)Oc2c1oc(CO)cc2=O (stereo not drawn) | -4.95% |
| CCN(CC)c1ccc(N2C(=O)/C(=C/c3ccccn3)SC2=S)cc1 | 13.7% |
| CN1C(=O)C2C(c3ccc(N(C)C)cc3)=NN(Cc3ccccc3)C2C1=O (stereo not drawn) | -1.7% |
| CCOc1ccccc1NC(=O)n1ncc2c(C)cccc21 | 13.6% |
| Cc1cc(Cl)c(C)c(S(=O)(=O)N2CCN(C(=O)C3CCCO3)CC2)c1Cl (stereo not drawn) | -21.6% |
